# The supplement of paper PMC8728848
# Some of the results follow.
# B1: Cp ZmpB (Clostridium perfringens), Q0TR08 (protein)
# chain: MNKRKIAAIILATMITNLSATTIDVLAQELNTKNNSKVEVSHDDESHQARVSKFDLYNSDKLDAYNQEFQVSRSNIKSINNNGGKYNSSTIDKAIDGNLETHWETGKPNDANFTNEVVVTFNEITNIDRIVYSARRDSARGKGFAKEFEIYASLKDEGDDFNLVSSGEYTESTRDLVEIKFNPTDFKRLKFKFKKADQNWASAAEFMFYKEDKLNEKFNGLFTDSSMNKVSEEFNTLEKLNAFENELKDHPIYDLYKEGLNNARAILTETSENPTKATLGQITYNLNDDYNNQYRMPYKNIKAIKNNGRHYAAQNIEKAIDNDVNTYWETGTLNSSSFNNEVEVEFNDLVTLDRIVYGSRQSDLKGFAEEVYIYASRTSKGDTYKLVATGAHEATKGLVEAKFEPTEFKRVKFKFKKSKQNSATLNELMFYKPDEVYSSIPKLFTDGTMSELSEEFNSLEKINAFKEKAKNHPLYNDFNETIELAESLISNPRKEDVLELEMRGDSISEAKKRKVWNFQDWQITGLSARAGDKITVYVDVAEGDPTPTLLYKQSLTQHGGATSFQLKPGKNEITIPEINYESNGIPKDVIQGGDLFFTNYKSDSQKRAPKVRIEGASKYPVFILGKSDENEVMKELEAYVEKIKAEPKTTPNIFAVSSNKSLEFVQATYALDWYKKNNKTPKYTAEQWDQYIADAMGFWGFDNSKDVNSDFNFRIMPMVKNLSGGAFMNAGNGVIGIRPGNQDAILAANKGWGVAHELGHNFDTGGRTIVEVTNNMMPLFFESKYKTKTRITDQNIWENNTYPKVGLDDYSNNELYNKADSTHLAQLAPLWQLYLYDNTFYGKFERQFRERDFGNKNREDIYKSWVVAASDAMELDLTEFFARHGIRVDDKVKEDLAKYPKPDKKIYYLNDLAMNYKGDGFTENAKVSVSTSGSNGNIKLSFSVDDENKDNILGYEIRRDGKYVGFTSNDSFVDTKSNLDEDGVYVVTPYDRKLNTLNPIEVNALQPTLSVNPVITLALGEEFNEEEYIVAKDIKGNSLSESVKVKSSNVNTSKVGEYEVLYSLEDSKGNEYTKTSKVNVVSRKEYMSDLTPKQSSNGWGTVRKDKSISGGVIGLTRDGDFVDYNKGLGLHSNAEYVYDLEGKDYDYFESYVGVDKAMSSRPASSVIFKVLVDGEEKFNSGVMRSTTPQKYVKVDVKNAKELKLIVNDAGDGDSSDHASFGDAKLATLSSKPIIKGENLAYSMDEKVDLMKGITATDIEDGNITSKVQIKSSDFVEGKSGIFTVVYSVTDSDGLTSECSRTIAVTDKETQLSDLNWKSATIGSGSVRKDRAVSGNQIRLLNEDNSVETFAKGIGTHSYSEIVYNSEGYDIFDTWVGIDRHVADKKVSSVKFKVYVDGELKAETDVMRIDTPKKRLVVDVRNSKEIKLVVDVADNGNNWDHADWADAKFRNLAEYDASELNKAIEEAKKLDLNNYTEESSEALKNAISKGEEALLSKDKETINSALEELNKEMNSLVKVDLNAVINIPDKYLLKSIQNQLNKTGDITLGDMYSLTTLTLSGVEDLTGLENAKNLETLNMDYNEVKDLRPLSKLKKLNTLNAQEQFIAAGELKPSNGKVIGDSKVYNREGKNVAKTIRVVDKNGNTILEQDAKDEFTINTKDLSSGLYGVHVLFEDEGFSGVMFYLFNV
# How the values were obtained:
# Assay in all cases: glycan array binding signal (z-score within array); higher = stronger binding
# Details in all cases: glycan notation: IUPAC condensed, linker removed
# [1] = biological target: Neu5Ac(a2-3)Gal(b1-4)GlcNAc(b1-3)Gal(b1-4)GlcNAc(b1-2)Man(a1-3)[Neu5Ac(a2-3)Gal(b1-4)GlcNAc(b1-3)Gal(b1-4)GlcNAc(b1-2)Man(a1-6)]Man(b1-4)GlcNAc(b1-4)GlcNAc
# Method in brief: (§1)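 From the Consortium for Functional Glycomics database, 3228 arrays were curated, keeping only those whose protein sequence was available. Binding is given as a within-array Z-score averaged across arrays sharing a protein sequence and across linkers. Negative Z-scores can be read as non-binding.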
# [2] = biological target: Neu5Ac(a2-3)Gal(b1-4)GlcNAc(b1-3)Gal(b1-4)GlcNAc(b1-3)Gal(b1-4)GlcNAc
# Method in brief: as §1
# [3] = biological target: Neu5Ac(a2-3)Gal(b1-4)GlcNAc(b1-3)Gal(b1-4)GlcNAc(b1-3)Gal(b1-4)GlcNAc(b1-2)Man(a1-3)[Neu5Ac(a2-3)Gal(b1-4)GlcNAc(b1-3)Gal(b1-4)GlcNAc(b1-3)Gal(b1-4)GlcNAc(b1-2)Man(a1-6)]GalNAc
# Method in brief: as §1
# [4] = biological target: Neu5Ac(a2-3)Gal(b1-4)GlcNAc(b1-3)Gal(b1-4)GlcNAc(b1-3)GalNAc
# Method in brief: as §1
# [5] = biological target: Neu5Ac(a2-3)Gal(b1-4)GlcNAc(b1-3)Gal(b1-4)GlcNAc(b1-3)[Neu5Ac(a2-3)Gal(b1-4)GlcNAc(b1-3)Gal(b1-4)GlcNAc(b1-6)]GalNAc
# Method in brief: as §1
# [6] = biological target: Neu5Ac(a2-3)Gal(b1-4)GlcNAc(b1-3)Gal(b1-4)GlcNAc(b1-6)[Gal(b1-3)]GalNAc
# Method in brief: as §1
# [7] = biological target: Neu5Ac(a2-3)Gal(b1-4)GlcNAc(b1-3)Gal(b1-4)[Fuc(a1-3)]GlcNAc
# Method in brief: as §1
# [8] = biological target: Neu5Ac(a2-3)Gal(b1-4)GlcNAc(b1-3)GalNAc
# Method in brief: as §1
# [9] = biological target: Neu5Ac(a2-3)Gal(b1-4)GlcNAc(b1-3)[Neu5Ac(a2-3)Gal(b1-4)GlcNAc(b1-6)]GalNAc
# Method in brief: as §1
# [10] = biological target: Neu5Ac(a2-3)Gal(b1-4)GlcNAc(b1-6)GalNAc
# Method in brief: as §1
# [11] = biological target: Neu5Ac(a2-3)Gal(b1-4)GlcNAc(b1-6)[Gal(b1-3)]GalNAc
# Method in brief: as §1
# [12] = biological target: Neu5Ac(a2-3)Gal(b1-4)GlcNAc(b1-6)[Neu5Ac(a2-3)Gal(b1-3)]GalNAc
# Method in brief: as §1
# [13] = biological target: Neu5Ac(a2-3)Gal(b1-4)GlcNAc6S
# Method in brief: as §1
# [14] = biological target: Neu5Ac(a2-3)Gal(b1-4)[Fuc(a1-3)]GlcNAc
# Method in brief: as §1
# [15] = biological target: Neu5Ac(a2-3)Gal(b1-4)[Fuc(a1-3)]GlcNAc(b1-2)Man
# Method in brief: as §1
# [16] = biological target: Neu5Ac(a2-3)Gal(b1-4)[Fuc(a1-3)]GlcNAc(b1-3)Gal
# Method in brief: as §1
# [17] = biological target: Neu5Ac(a2-3)Gal(b1-4)[Fuc(a1-3)]GlcNAc(b1-3)Gal(b1-4)GlcNAc
# Method in brief: as §1
# [18] = biological target: Neu5Ac(a2-3)Gal(b1-4)[Fuc(a1-3)]GlcNAc(b1-3)Gal(b1-4)[Fuc(a1-3)]GlcNAc(b1-3)Gal(b1-4)[Fuc(a1-3)]GlcNAc
# Method in brief: as §1
# [19] = biological target: Neu5Ac(a2-3)Gal(b1-4)[Fuc(a1-3)]GlcNAc(b1-3)GalNAc
# Method in brief: as §1
# [20] = biological target: Neu5Ac(a2-3)Gal(b1-4)[Fuc(a1-3)]GlcNAc(b1-6)[Gal(b1-3)]GalNAc
# Method in brief: as §1
# [21] = biological target: Neu5Ac(a2-3)Gal(b1-4)[Fuc(a1-3)]GlcNAc(b1-6)[Neu5Ac(a2-3)Gal(b1-3)]GalNAc
# Method in brief: as §1
# [22] = biological target: Neu5Ac(a2-3)Gal(b1-4)[Fuc(a1-3)]GlcNAc6S
# Method in brief: as §1
# [23] = biological target: Neu5Ac(a2-3)Gal6S(b1-4)GlcNAc
# Method in brief: as §1
binder,measurement,setting,value
B1,glycan array binding signal (z-score),[1],-0.223
same,glycan array binding signal (z-score),[2],-0.056
same,glycan array binding signal (z-score),[3],0.177
same,glycan array binding signal (z-score),[4],0.121
same,glycan array binding signal (z-score),[5],-0.003
same,glycan array binding signal (z-score),[6],-0.272
same,glycan array binding signal (z-score),[7],-0.07
same,glycan array binding signal (z-score),[8],-0.142
same,glycan array binding signal (z-score),[9],-0.029
same,glycan array binding signal (z-score),[10],-0.358
same,glycan array binding signal (z-score),[11],1.22
same,glycan array binding signal (z-score),[12],0.002
same,glycan array binding signal (z-score),[13],-0.316
same,glycan array binding signal (z-score),[14],0.096
same,glycan array binding signal (z-score),[15],0.027
same,glycan array binding signal (z-score),[16],-0.322
same,glycan array binding signal (z-score),[17],-0.084
same,glycan array binding signal (z-score),[18],-0.268
same,glycan array binding signal (z-score),[19],0.48
same,glycan array binding signal (z-score),[20],0.648
same,glycan array binding signal (z-score),[21],-0.172
same,glycan array binding signal (z-score),[22],0.72
same,glycan array binding signal (z-score),[23],0.218
